# Measured values reported in PubChem BioAssay AID1030 (National Center for Advancing Translational Sciences (NCATS), 2008).
# Out of some 220,000 compounds screened, about 16,000 (7.3%) were called active. Inconclusive means that the source gave no clear call. Such entries were picked first, then a sample of the others. The call rests on the fitted dose curve; in most records, active means well fitted inhibition curve with a large enough effect (not every such curve was filed as active); inconclusive means small, poorly fitted or top-dose-only effect, or another doubt; inactive means no such curve, though single readings can be large or run the other way. Potencies of inconclusive entries are left out as doubtful fits.
# Biological target: Aldehyde dehydrogenase 1A1 (Homo sapiens) (UniProt P00352)
# Assay: qHTS Assay for Inhibitors of Aldehyde Dehydrogenase 1 (ALDH1A1);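 on activity, negative = inhibition: plate controls were no enzyme wells and a reference inhibitor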
# Details: Purified ALDH1A1, NADH fluorescence, propionaldehyde substrate; series mostly up to 75.3 µM
# Potency means the concentration at half of the fitted maximal effect; tags describe the fitted curve by direction and shape.
# UniProt P00352, sequence (P00352 whole entry, looked up): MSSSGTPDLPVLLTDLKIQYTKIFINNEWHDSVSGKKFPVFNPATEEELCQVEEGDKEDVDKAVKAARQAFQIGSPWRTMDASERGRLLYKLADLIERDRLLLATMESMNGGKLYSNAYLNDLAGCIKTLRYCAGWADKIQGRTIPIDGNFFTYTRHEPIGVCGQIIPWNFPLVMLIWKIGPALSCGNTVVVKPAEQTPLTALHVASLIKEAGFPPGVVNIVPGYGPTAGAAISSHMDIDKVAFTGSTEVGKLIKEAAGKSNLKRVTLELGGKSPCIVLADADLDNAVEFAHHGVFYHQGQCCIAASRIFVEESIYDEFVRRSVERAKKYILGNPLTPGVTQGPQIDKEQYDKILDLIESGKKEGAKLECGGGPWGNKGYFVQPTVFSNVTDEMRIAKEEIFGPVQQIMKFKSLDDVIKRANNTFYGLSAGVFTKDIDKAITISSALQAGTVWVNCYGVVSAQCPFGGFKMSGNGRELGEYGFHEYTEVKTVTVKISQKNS
SMILES,Potency,"activity, negative = inhibition"
COc1ccccc1CNC(=O)c1ccc(N2CCOCC2)c([N+](=O)[O-])c1,"inconclusive [inhibitor, single point]",
COc1ccccc1Nc1nc(N)nc(-c2oc3ccccc3c2C)n1,"inconclusive [inhibitor, single point]",
CN1CCc2c(n(CC(O)CNCc3ccccc3)c3ccccc23)C1=O (stereo unspecified),inactive,
Cc1cc(C)c2cc(CN(Cc3ccco3)C(=S)NCC3CCCO3)c(=O)[nH]c2c1 (stereo unspecified),active: 25.1 µM,
COC(=O)c1sccc1-c1ccc(/C=N/OC(=O)c2ccccc2)o1,"inconclusive [inhibitor, partial curve]",
N#CCSc1nc2ccccc2c(=O)n1C1CCCCC1,"inconclusive [inhibitor, single point]",
O=C(NCCc1ccc(Cl)cc1)C1CCN(S(=O)(=O)N2CCCC2)CC1,active: 3.16 µM,
C=CCN(CC=C)CCOc1ccc(C)cc1[N+](=O)[O-],"inconclusive [inhibitor, single point]",
COc1ccc(C(=O)NCCNc2ccc([N+](=O)[O-])cc2)cc1,inactive,
Cc1c(Cl)cccc1NC(=S)N1CCN(Cc2ccccc2)CC1,"inconclusive [inhibitor, single point]",
CN(C)c1ccc(C2=NOC(CN3C(=O)c4ccccc4S3(=O)=O)C2)cc1 (stereo unspecified),active: 15.8 µM,
COc1ccc(-c2nnc(SCC(=O)N3c4ccccc4Sc4ccccc43)o2)cc1,inactive,
Cc1noc(C)c1-c1ccc2ncnc(N3CCN(C)CC3)c2c1,"inconclusive [inhibitor, partial curve]",
O=C(COC(=O)c1ccc([N+](=O)[O-])s1)Nc1ncc(C(F)(F)F)cc1Cl,active: 17.8 µM,
O=C(Nc1ccc2nc(-c3cccnc3)[nH]c2c1)C12CC3CC(CC(C3)C1)C2,"inconclusive [inhibitor, partial curve]",
CN(C)c1ccc(-c2cncnc2Nc2ccccc2)cc1,active: 25.1 µM,
COc1ccc(OC(=O)c2ccc3nsnc3c2)cc1,inactive,
CC1CCCC(C)N1c1nnc(N)s1 (stereo unspecified),inactive,
CCN(CC)c1ccc(NC(=O)c2ccc(Cl)nc2)cc1,"inconclusive [inhibitor, single point]",
COc1ccc(NC(=O)Cc2ccc(C)cc2)c([N+](=O)[O-])c1,inactive,
N#CCC(=O)Nc1ncn(Cc2ccccc2Cl)n1,"inconclusive [inhibitor, single point]",
COc1c(C)cc(C(=O)C2CCCN(C(=O)CCc3scnc3C)C2)cc1C (stereo unspecified),"inconclusive [inhibitor, single point]",
O=C(Oc1ccccc1)c1cccnc1Oc1ccccc1,inactive,
COc1ccc2[nH]c(=O)c(CN(CCN3CCCC3)C(=O)Nc3ccccc3Cl)cc2c1,"inconclusive [inhibitor, single point]",
CCCCCn1c(CN(C)Cc2ccccc2)nc2c1c(=O)n(C)c(=O)n2C,active: 10 µM,
NC(=O)C1CCN(C(=O)c2ccco2)CC1,inactive,

SMILES,Potency,"activity, negative = inhibition"
CCC(=O)Nc1cccc(NC(=S)NC(=O)c2ccccc2)c1,"inconclusive [inhibitor, single point]",
CN(Cc1ccco1)c1ncnc2ccc(-c3ccoc3)cc12,"inconclusive [inhibitor, partial curve]",
CCOC(=O)C1(CCOc2ccccc2)CCN(Cc2cnc(SC)nc2)CC1,inactive,
CCOC(=O)c1sc(-n2[nH]c(C)cc2=O)nc1C,"inconclusive [inhibitor, partial curve]",
O=c1c2c3c(sc2nc(NCCO)n1Cc1ccco1)CCCCC3,inactive,
Cc1ccc(S(=O)(=O)N(CC(=O)N2CCOCC2)C2CCCCC2)cc1,"inconclusive [inhibitor, single point]",
Cc1ccc(N=N/C(=C\O)C(=O)c2ccncc2)cc1,active: 3.98 µM,
O=C(CCl)c1ccc2c(c1)CCN2C(=O)C1CC1,"inconclusive [inhibitor, partial curve]",
Cc1ccc(NC(=O)N2CCc3ccccc3C2)cc1,"inconclusive [inhibitor, partial curve]",
Cc1cc(Br)c2[nH]c3c(c2c1)CCCC3=O,"inconclusive [inhibitor, single point]",
COc1ccc(C=C(c2ccc(OC)cc2)c2ccc(OC)cc2)cc1,"inconclusive [inhibitor, single point]",
CCC(CC)NC(=O)c1n[nH]c(=O)c2ccccc12,"inconclusive [inhibitor, single point]",
CC(=O)N1N=C(c2ccncc2)OC12CCCC2,"inconclusive [inhibitor, partial curve]",
Cc1cccc(OCc2nnc(SCC(=O)N3c4ccccc4Sc4ccc(Cl)cc43)o2)c1,"inconclusive [inhibitor, single point]",
Fc1cccc(F)c1/C=C/c1ccc2ccccc2n1,inactive,
COc1ccc(OCC(=O)O/N=C(\N)Cc2cccs2)cc1,inactive,
COc1ccc(CC2(CO)CCN(Cc3cnn(C)c3)CC2)cc1,inactive,
COCCNC(=O)CSc1nc2nc(C)cc(C)n2n1,inactive,
COc1cc(C=C(c2nc3ccccc3s2)c2nc3ccccc3s2)cc(OC)c1O,inactive,
Nc1ccccc1SCc1cc([N+](=O)[O-])cc2c1OCOC2,"inconclusive [inhibitor, single point]",
NNC(=O)c1cccc(COc2ccccc2Br)c1,active: 3.55 µM,
O=C1C(=O)N(CCN2CCOCC2)C(c2ccncc2)/C1=C(/O)c1ccc2c(c1)OCO2 (stereo unspecified),"inconclusive [inhibitor, single point]",
Nn1c(=O)[nH]c2ccccc2c1=O,"inconclusive [inhibitor, single point]",
COc1ccc(S(=O)(=O)Nc2nc3ccccc3nc2Nc2ccc3c(c2)OCO3)cc1,"inconclusive [inhibitor, partial curve]",
CCOC(=O)c1c(C)oc(NC(=O)CCl)c1C(=O)OCC,active: 3.55 µM,
CC(C)(C)n1nnnc1C(c1cccs1)N(Cc1ccc(Cl)cc1)CC1CCCO1 (stereo unspecified),"inconclusive [inhibitor, partial curve, poor fit]",

SMILES,Potency,"activity, negative = inhibition"
Cc1nn(C(C)C(=O)N2CCc3ccccc3C2)c(=O)c2cc3occc3n12 (stereo unspecified),"inconclusive [inhibitor, single point]",
NC(=O)NOC[C@@H]1NC(=O)NC1=O,,inactive: -3.63% [at 13.5 µM]
Cc1ccc(Nc2nc(CSc3nnnn3-c3ccccc3)cs2)cc1,active: 8.91 µM,
COc1ccc(NC(=O)C2CCCCN2S(=O)(=O)c2ccc(F)cc2)cc1 (stereo unspecified),"inconclusive [inhibitor, single point]",
CN(CC[C@@H](Oc1ccc(-c2ccccc2)cc1)c1ccc(F)cc1)CC(=O)O,"inconclusive [inhibitor, single point]",
C/C(=N\OC(=O)NC1CCCCC1)c1sc(-c2ccccc2)nc1C,"inconclusive [inhibitor, single point]",
O=c1cc(CN2CCc3ccccc32)c2ccc(O)cc2o1,"inconclusive [inhibitor, partial curve]",
O=C(NC1CCCCC1)C(c1ccncc1)N(C(=O)Cn1nnc(-c2cccs2)n1)C1CCCC1 (stereo unspecified),inactive,
O=C(Nc1ccc(NC(=O)c2cccs2)cn1)c1ccco1,"inconclusive [inhibitor, single point]",
CN(C)c1ccc(C=NCCC2(O)CCOC(C)(C)C2)cc1 (stereo unspecified),active: 0.562 µM,
Cc1cc(/C=C2/NC(=O)NC2=O)c(C)n1-c1sc2c(c1C#N)CCCC2,active: 12.6 µM,
Cc1ccc(NC(=O)c2cc(NC(=O)c3ccco3)ccc2N2CCOCC2)cc1,"inconclusive [inhibitor, single point]",
Cn1nccc1C(=O)Oc1ccc(/C=N/NC(=O)c2ccccc2O)cc1,"inconclusive [inhibitor, single point]",
Cc1cccc(Oc2cc(NC(=O)Cn3cnc([N+](=O)[O-])n3)cc([N+](=O)[O-])c2)c1,"inconclusive [inhibitor, partial curve]",
Cc1nc2ccc3[nH]snc3c2n1,"inconclusive [inhibitor, single point]",
CC(C)NS(=O)(=O)c1ccc(NC(=S)NC(=O)c2cccc([N+](=O)[O-])c2)cc1,active: 8.91 µM,
Cc1ccc(N2CCN(CCCCN3C(=O)C4CCCN4C3=O)CC2)cc1 (stereo unspecified),"inconclusive [inhibitor, single point]",
NC(Cc1cnc[nH]1)C(=O)Nc1ccc2ccccc2c1 (stereo unspecified),inactive,
O=C(O)c1ccc(N/N=C/c2ccc(C(F)(F)F)cc2)cc1,"inconclusive [inhibitor, single point]",
Nc1nc(SCc2ccccc2)[nH]c(=O)c1-c1ccccc1,active: 14.1 µM,
CCCOCC1CC(CCc2nc(=S)[nH][nH]2)C(=O)O1 (stereo unspecified),inactive,
CCOc1ccccc1NC(=O)c1ccccc1-c1nc(-c2ccccc2OC)no1,inactive,
COc1ccc2cc(C(C)=O)c(=O)oc2c1,"inconclusive [inhibitor, single point]",
O=C(CCc1ccccc1)Nc1cccc([N+](=O)[O-])c1,"inconclusive [inhibitor, single point]",
